{"source": "the supplement of paper PMC10600219", "note": "Structures can show the parent of a compound that is named as a salt. In all, about 2,800 compounds were measured (“cell viability relative to vehicle”: median about 1.1, lowest 2% from about 0.19 on). The list shows a part of the results."}
{"test_system": "NCI-H2228 parental", "assay": "cell viability relative to vehicle (fraction of vehicle); NCI-H2228 is an ALK-positive lung cancer line and DTP means drug-tolerant persister; higher = less growth inhibition", "settings": "100 nM; treatment time 6 days", "outline": "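The 3114-agent TargetMol anti-cancer compound library was tested at 100 nM for 6 days on parental NCI-H2228 cells and on persister cells derived with 1000 nM of a targeted drug for 13 days. ATP readout by the CellTiter-Glo 3D Cell Viability Assay gave cell viability relative to DMSO vehicle-treated cells.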"}
{"smiles": "Cc1ccc(C(=O)Cn2c3c(sc2=N)CCCC3)cc1", "note": "[Pifithrin-α]", "cell viability": 0.899}
{"smiles": "CC(C)(C)NC(=O)[C@H]1CC[C@H]2[C@@H]3CC[C@H]4NC(=O)C=C[C@]4(C)[C@H]3CC[C@]12C", "note": "[Finasteride]", "cell viability": 1.12}
{"smiles": "Cc1ccc(C(=O)N(CCCN)[C@@H](c2oc3cc(Cl)ccc3c(=O)c2Cc2ccccc2)C(C)C)cc1", "cell viability": 0.247}
{"smiles": "C=C1CC[C@H](O)C/C1=C/C=C1\\CCC[C@]2(C)[C@@H]([C@H](C)/C=C/[C@H](C)C(C)C)CC[C@@H]12", "note": "[Vitamin D2]", "cell viability": 1.04}
{"smiles": "COc1cc2ccc(=O)oc2cc1OC", "note": "[Scoparone]", "cell viability": 1.03}
{"smiles": "CCS(=O)(=O)N1CCN(c2ccc(Nc3ncc(C(N)=O)c(NC4CC4)n3)cc2)CC1", "note": "[Cerdulatinib]", "cell viability": 0.683}
{"smiles": "CC(=O)NC(CC(C)C)C(=O)O", "note": "(centres undefined) [Acetylleucine]", "cell viability": 1.28}
{"smiles": "CC(C)C(=O)c1c(C(C)C)nn2ccccc12", "note": "[Ibudilast]", "cell viability": 1.08}
{"smiles": "C[C@H]1COC2(CCN(c3nc(=O)c4cc(C(F)(F)F)cc([N+](=O)[O-])c4s3)CC2)O1", "cell viability": 1.23}
{"smiles": "CCc1ccc(OCC(=O)Nc2ccc(F)c([N+](=O)[O-])c2)cc1", "cell viability": 1.07}
{"smiles": "O=C(c1ccccc1)c1ccc2nc(NC(=O)c3csc(C4CCN(c5ncnc6ccsc56)CC4)n3)[nH]c2c1", "cell viability": 1.03}
{"smiles": "CN1CCN(c2ccc(C(=O)Nc3cc(-c4cccc(NS(=O)(=O)c5ccccc5)c4)[nH]n3)cc2)CC1", "cell viability": 1.15}
{"smiles": "CC(CN(C)C)CN1c2ccccc2CCc2ccccc21", "note": "(centres undefined) [Trimipramine maleate]", "cell viability": 0.975}
{"smiles": "CCCCCCCC(=O)c1c(O)cc(O)cc1CC(=O)OCC", "note": "[Cytosporone B]", "cell viability": 1.03}
{"smiles": "Cc1c(-c2ccc(-c3ccccc3F)cc2)nc2ccc(F)cc2c1C(=O)O", "note": "[Brequinar]", "cell viability": 1}
{"smiles": "C=CC(=O)N[C@H]1CCOC[C@H]1Nc1ncc2cc(-c3c(Cl)c(OC)cc(OC)c3Cl)ccc2n1", "cell viability": 1.07}
{"smiles": "C[C@H](CS)C(=O)N1CCC[C@H]1C(=O)O", "note": "[Captopril]", "cell viability": 1.21}
{"smiles": "CCOC(=O)c1c2c3c(cccc3[nH]c1=O)C(=O)c1ccccc1-2", "cell viability": 1.06}
{"smiles": "COc1cc(/C=C/C=O)ccc1O", "note": "[Coniferyl aldehyde]", "cell viability": 0.918}
{"smiles": "Cn1cnc2c(F)c(Nc3ccc(Br)cc3Cl)c(C(=O)NOCCO)cc21", "note": "[Selumetinib]", "cell viability": 1.04}
{"smiles": "Nc1nc(N)c2nc(-c3cccc(O)c3)c(-c3cccc(O)c3)nc2n1", "cell viability": 1.19}
{"smiles": "NCCc1ccc(O)c(O)c1", "note": "[Dopamine hydrochloride]", "cell viability": 1.1}
{"smiles": "O=C(/C=C/c1cccnc1)NCCCCC1CCN(C(=O)c2ccccc2)CC1", "cell viability": 0.271}
{"smiles": "Cc1c(Nc2ncccc2C(=O)O)cccc1C(F)(F)F", "note": "[Flunixin meglumin]", "cell viability": 1.02}
{"smiles": "OC[C@@H](O)CN1CCN(c2ccccc2)CC1", "note": "[Levodropropizine]", "cell viability": 1.02}
{"smiles": "N#CC1(c2ccc(NC(=O)c3cccnc3NCc3ccncc3)cc2)CCCC1", "note": "[Apatinib]", "cell viability": 0.88}
{"smiles": "CC(ONC(=O)c1cc(C(F)(F)F)cc(C(F)(F)F)c1)C(=O)Nc1ccc(Cl)cc1", "note": "(centres undefined)", "cell viability": 1.07}
{"smiles": "CN1CCN(C(=O)c2cc3cc(Cl)ccc3[nH]2)CC1", "cell viability": 1.11}
{"smiles": "COc1ccc(CNc2nc(N3CCC[C@H]3CO)ncc2C(=O)NCc2ncccn2)cc1Cl", "note": "[Avanafil]", "cell viability": 0.966}
{"smiles": "COC(=O)N[C@H](C(=O)N1CC2(CC2)C[C@H]1c1nc(-c2ccc3c(c2)C(F)(F)c2cc(-c4ccc5[nH]c([C@@H]6[C@H]7CC[C@H](C7)N6C(=O)[C@@H](NC(=O)OC)C(C)C)nc5c4)ccc2-3)c[nH]1)C(C)C", "note": "[Ledipasvir]", "cell viability": 1.05}
{"smiles": "O=C1NC(c2cccc([N+](=O)[O-])c2)=CCN1c1ccccc1O", "cell viability": 1.04}
{"smiles": "CC(=O)OCC(=O)[C@@]1(O)CC[C@H]2[C@@H]3CCC4=CC(=O)C=C[C@]4(C)[C@H]3[C@@H](O)C[C@@]21C", "note": "[Prednisolone-21-acetate]", "cell viability": 1}
{"smiles": "C[C@H]1C[C@H]2[C@@H]3CCC4=CC(=O)C=C[C@]4(C)[C@H]3C(=O)C[C@]2(C)[C@@]1(O)C(=O)CO", "note": "[Meprednisone]", "cell viability": 1.13}
{"smiles": "Cc1ccc(S(=O)(=O)OCC(=O)Nc2ccc(C(=O)O)c(O)c2)cc1", "cell viability": 0.969}
{"smiles": "Cc1nnc(NC(=O)c2nc(S(=O)(=O)Cc3ccc(F)cc3)ncc2Cl)s1", "cell viability": 1.06}
{"smiles": "O=C(O)CCCN1CCC(O[C@@H](c2ccc(Cl)cc2)c2ccccn2)CC1", "note": "[Bepotastine Besilate]", "cell viability": 1.11}
{"smiles": "O=C(Nc1ncc(SCCN2CCCC2)s1)[C@]1(c2ccc(S(=O)(=O)C3CC3)cc2)C[C@H]1C1CCCCC1", "cell viability": 1.16}
{"smiles": "COc1ccc(/C=C/c2cc(O)cc(O[C@@H]3O[C@H](CO)[C@@H](O)[C@H](O)[C@H]3O)c2)cc1O", "note": "[Rhaponiticin]", "cell viability": 1.11}
{"smiles": "NNC(=O)c1ccncc1", "note": "[Isoniazid]", "cell viability": 1.01}
{"smiles": "COc1ccc(-c2ccc3cc(C(=O)O)ccc3c2)cc1C12CC3CC(CC(C3)C1)C2", "note": "[Adapalene]", "cell viability": 0.681}
{"smiles": "COc1cc2c(NC3CCN(CC4CCCCC4)CC3)nc(N3CCCN(C(C)C)CC3)nc2cc1OCCCN1CCCCC1", "cell viability": 0.981}
{"smiles": "Nc1cc(C(F)(F)F)c(-c2nc(N3CCOCC3)nc(N3CCOCC3)n2)cn1", "cell viability": 0.69}
{"smiles": "CC(=O)O[C@@H]1C[C@H](O)[C@@]23CO[C@@H](O)[C@]1(C)[C@@H]2C[C@@H](O)[C@]1(C)[C@@H]3C(=O)[C@H](OC(C)=O)[C@@]2(C)[C@H](c3ccoc3)C[C@H]3O[C@]321", "note": "[Toosendanin]", "cell viability": 0.147}
{"smiles": "Cc1cc(=O)c(C(=O)N[C@@H](C(=O)N[C@@H]2C(=O)N3C(C(=O)O)=C(CSc4nnnn4C)CS[C@H]23)c2ccc(O)cc2)c[nH]1", "note": "[Cefpiramide acid]", "cell viability": 1.08}
{"smiles": "O=c1[nH]c(=O)n([C@H]2C[C@H](O)[C@@H](CO)O2)cc1I", "note": "[Dendrid]", "cell viability": 1.2}
{"smiles": "COc1cc2c(cc1OC)CN(C(=O)[C@@H](NCc1ccncc1)C(C)(C)C)CC2", "cell viability": 1.01}
{"smiles": "CN1CCN(c2ccc3nc(-c4c(N)c5c(F)cccc5[nH]c4=O)[nH]c3c2)CC1", "note": "[Dovitinib]", "cell viability": 0.968}
{"smiles": "N[C@@H](COP(=O)(O)O)C(=O)O", "note": "[Phosphoserine]", "cell viability": 0.97}
{"smiles": "CCCCC/C=C\\C/C=C\\CCCCCCCC(=O)O", "note": "[Linoleic acid]", "cell viability": 0.996}
{"smiles": "Cc1cccc(N(C)C(=S)Oc2ccc3ccccc3c2)c1", "note": "[Tolnaftate]", "cell viability": 1.1}
{"smiles": "CC(C)c1nc(CN(C)C(=O)N[C@@H](CCN2CCOCC2)C(=O)N[C@H](CC[C@H](Cc2ccccc2)NC(=O)OCc2cncs2)Cc2ccccc2)cs1", "note": "[Cobicistat]", "cell viability": 1.14}
{"smiles": "Cc1cccc(-c2nn3c(c2-c2ccnc4ccc(C(N)=O)cc24)CCC3)n1", "note": "[Galunisertib]", "cell viability": 1.01}
{"smiles": "O=C(Nc1cccnc1)N1CCC(Cc2cccc(Oc3ccc(C(F)(F)F)cn3)c2)CC1", "cell viability": 1.05}
{"smiles": "O=C(Nc1ccc([N+](=O)[O-])cc1Cl)c1cc(Cl)ccc1O", "note": "[Niclosamide]", "cell viability": 0.961}
{"smiles": "CCOc1ccc(Cc2nccc3cc(OCC)c(OCC)cc23)cc1OCC", "note": "[Ethaverine hydrochloride]", "cell viability": 1.1}
{"smiles": "Cc1cc(C)nc(NS(=O)(=O)c2ccc(NC(=S)NC(=O)COc3ccc(Br)cc3Cl)cc2)n1", "cell viability": 0.924}
{"smiles": "NC[C@H]1OB(O)c2c(OCCCO)cccc21", "note": "[Epetraborole hydrochloride]", "cell viability": 1.14}
{"smiles": "CN1C(C(=O)Nc2ccccn2)=C(O)c2sc(Cl)cc2S1(=O)=O", "note": "[Lornoxicam]", "cell viability": 1.3}
{"smiles": "OC[C@H]1O[C@@H](Oc2cc(O)cc(/C=C/c3ccc(O[C@@H]4O[C@H](CO)[C@@H](O)[C@H](O)[C@H]4O)cc3O)c2)[C@H](O)[C@@H](O)[C@@H]1O", "note": "[Mulberroside A]", "cell viability": 1.07}
{"smiles": "C/C(=N\\NC(=O)c1cccc(S(=O)(=O)N2CCN(C)CC2)c1)c1cc(Cl)ccc1O", "note": "[Seclidemstat]", "cell viability": 0.936}
{"smiles": "COc1ccc(-c2cc(=O)c3c(OC)c(OC)c(OC)c(OC)c3o2)cc1", "note": "[Tangeretin]", "cell viability": 1.15}
{"smiles": "O=C(O)c1ccc(C=C2SC(=S)N(c3cccc(C(F)(F)F)c3)C2=O)cc1", "cell viability": 1.25}
{"smiles": "O=C1N=c2ccccc2=C1c1c(O)[nH]c2ccccc12", "note": "[Isoindigotin]", "cell viability": 1.07}
{"smiles": "N#Cc1c(Oc2ccc(F)c(NC(=O)Cc3cccc(C(F)(F)F)c3)c2)ccc2nc(NC(=O)C3CC3)sc12", "cell viability": 1.07}
{"smiles": "CC(C)=CCc1cc2c(cc1O)O[C@H](c1ccc(O)cc1)CC2=O", "note": "[Bavachin]", "cell viability": 1.03}
{"smiles": "CCc1nc2c(C)cc(N3CCN(CC(=O)N4CC(O)C4)CC3)cn2c1N(C)c1nc(-c2ccc(F)cc2)c(C#N)s1", "cell viability": 1.14}
{"smiles": "CC1(C)C=Cc2c(ccc3c2OC[C@@H](c2ccc(O)cc2O)C3)O1", "note": "[Glabridin]", "cell viability": 1.05}
{"smiles": "O=c1cc[nH]c(=O)[nH]1", "note": "[Uracil]", "cell viability": 1.13}
{"smiles": "O=C(NCc1ccc(S(=O)(=O)c2cc(F)cc(F)c2)cc1)c1ccc2nccn2c1", "cell viability": 0.117}
{"smiles": "Cc1ccc(C(=O)Nc2cccc(C(F)(F)F)c2)cc1Nc1nc(-c2cccnc2)nc2c1cnn2C", "cell viability": 1.06}
{"smiles": "COc1ccc(-c2cc(=O)c3c(OC)c(OC)c(OC)c(OC)c3o2)cc1OC", "note": "[Nobiletin]", "cell viability": 1.25}
{"smiles": "O=C(O)CCc1nc2ccccc2[nH]1", "note": "[Procodazole]", "cell viability": 1.04}
{"smiles": "NCc1c[nH]c(=S)n1[C@H]1CCc2c(F)cc(F)cc2C1", "note": "[Nepicastat HCl]", "cell viability": 1.09}
{"smiles": "CCCc1nc(C(C)(C)O)c(C(=O)OCc2oc(=O)oc2C)n1Cc1ccc(-c2ccccc2-c2nnn[nH]2)cc1", "note": "[Olmesartan Medoxomil]", "cell viability": 1.41}
{"smiles": "Cn1c(=O)c2c(ncn2CC(O)CO)n(C)c1=O", "note": "(centres undefined) [Diprophylline]", "cell viability": 1.1}
{"smiles": "CC(C)C[C@H](N)C(=O)O", "note": "[L-Leucine]", "cell viability": 0.952}
{"smiles": "OCc1ccc(-c2nn(Cc3ccccc3)c3ccccc23)o1", "note": "[Lificiguat]", "cell viability": 0.894}
{"smiles": "NC(=O)c1cccnc1", "note": "[Nicotinamide]", "cell viability": 1.23}
{"smiles": "CNC1(C)C2CCC(C2)C1(C)C", "note": "(centres undefined) [Mecamylamine hydrochloride]", "cell viability": 1.12}
